Inhibition data for 109 compounds are collected here from PubChem BioAssay AID434955 (Southern Research Specialized Biocontainment Screening …, 2010).

The other results are listed elsewhere or left out. The main result of the screen is listed elsewhere. These columns were measured beside it and carry no call. Compounds called inactive in the main read-out are mostly missing here.

This assay can be described thus: beta-lactam sensitization of Mtb H37Rv, H37Rv (AID 434955).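 Note: growth measured after seven days incubation then overnight dye step; 0% = bacteria only wells and 100% = bacteria with antibiotic.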 The note with it: M. tuberculosis H37Rv growth with meropenem, percent inhibition; measured here: primary screen without meropenem; at 25 µM.
A word on the inhibition: it is the change of the read-out against control, counted positive when it falls. Take `O=C(Oc1oc(-c2ccco2)nc1C=Nc1ccc(Cl)cc1)c1ccco1`: the inhibition was 13.3%.

As for `COc1ccccc1/C=N/NC(=S)Nc1cccnc1`, the inhibition stood at 32.2%.

With `CCC1CCCCN1C(=O)c1ccc(OC2CCN(C(=O)COC)CC2)cc1` (centres undefined), the inhibition was -0.39%.

As for `O=C(O)c1ccc2c(c1)ncn2C1CCCCCC1`, the inhibition stood at 1.16%.

Take `COc1ccc(Nc2nnc(SCc3cc(=O)n4ccsc4n3)s2)cc1`: the inhibition was determined as 2.31%.

For the compound `COc1cccc(NC(=O)N(C2CCCCC2)C(C)c2cccs2)c1` (centres undefined), the inhibition was -1.16%.

Consider `CC(C)c1cc(CNC(=O)C2CCC(=O)N(Cc3ccccc3F)C2)on1` (centres undefined), for which the inhibition was -0.4%.

Regarding `O=C(NC(=S)Nc1ccc(Cl)c(C(=O)O)c1)c1cccc(COc2ccccc2)c1`, the inhibition stood at 52.2%.

For the compound `COc1ccc(C(=O)N2CCCC(Nc3ccc(C)c(C)c3)C2)cc1F` (centres undefined), the inhibition was found to be 13.6%.

Regarding `O=C(CN1C(=O)c2cccnc2Oc2ccc(Cl)cc21)NC1CCCCCC1`, the inhibition was 6.18%.

`O=S(=O)(Nc1cccc(-n2cnnn2)c1)c1ccc(Cl)nc1`: the inhibition was found to be 1%.

On to `CC1CCCN(C(=O)c2ccc3c(c2)OCO3)C1` (centres undefined), for which the inhibition worked out at 6.37%.

Turning to `CCn1c(O)c(/C=N/NC(=O)c2ccccc2)c(=O)n(CC)c1=S`, the inhibition was 4.42%.

For the compound `CCn1cc(C(=O)O)c(=O)c2cc(F)c(N/N=C/c3ccccc3)cc21`, the inhibition came to 28%.

As for `COc1cc(/C=N/n2c(COc3ccccc3)n[nH]c2=S)cc(OC)c1OC(C)=O`, the inhibition was 4.77%.

`O=C(CN(c1cc(C(F)(F)F)ccc1Cl)S(=O)(=O)c1ccccc1)NCc1cccnc1`: the inhibition was -3.98%.

`O=C(CN1CCOCC1)NCCNS(=O)(=O)c1ccccc1`: the inhibition was -2.86%.

Take `O=C(/C=C/c1ccccn1)c1cc(Br)ccc1O`: the inhibition turned out to be 11.9%.

With `Cc1noc(C)c1COc1cccc(C(=O)OC(C)C(=O)Nc2ccc3c(c2)OCO3)c1` (centres undefined), the inhibition is -0.96%.

As to `O=C(CCN1C(=O)/C(=C/c2ccccc2Cl)SC1=S)Nc1ccccn1`, the inhibition was found to be 95.9%.

Take `O=C(c1cc(COc2ccccc2)on1)N1CCCC(OCc2cccnc2)C1` (centres undefined): the inhibition came out at 4.22%.

In the case of `CCOc1nc(-c2ccccc2)ccc1-c1noc(-c2ccco2)n1`, the inhibition was 12.4%.

On to `COc1ccc(NC(=O)CSc2nccn2Cc2ccco2)cc1`, for which the inhibition was -2.88%.

In the case of `CC1=CC(C)(C)N(S(=O)(=O)c2ccc(F)cc2)c2ccccc21`, the inhibition was -0.1%.

For the compound `CSc1nnc2c(n1)OC(c1cccn1C)N(C(C)=O)c1ccccc1-2` (centres undefined), the inhibition is -5.01%.

Turning to `CC(=O)Nc1ccc(S(=O)(=O)N2CCNC(=O)CC2)cc1`, the inhibition was -1.88%.

On to `Cc1cc(Nc2ccc(C(=O)O)cc2)n2nc(C)nc2n1`, for which the inhibition was -2.73%.

Regarding `COc1cc(C(=O)NCCC(=O)NCc2ccc3c(c2)OCO3)cc(OC)c1OC`, the inhibition was -1.93%.

`Cc1nc2c(-c3ccccc3)cnn2c(N2CCOCC2)c1C`: the inhibition came out at 5.69%.

With `COC(=O)c1ccc(C(=O)OC)c(NC(=O)c2cnc3n(c2=O)CCS3)c1`, the inhibition is -0.37%.

For the compound `COC(=O)CNc1c(-c2ccccc2)nc2ccc(Br)cn12`, the inhibition was -7.8%.

Regarding `O=C(O)c1cc(-c2ccccn2)n[nH]1`, the inhibition is -10.9%.

Consider `O=C(CSc1nnnn1-c1ccccc1)Nc1ncc2c(n1)CC(c1ccccc1)CC2=O` (centres undefined), for which the inhibition came out at 11%.

For `Cc1c(C(=O)OCCN2CCCCC2)oc2ccccc12`, the inhibition was -1.07%.

`Cc1nnc(SCc2cnc(-c3ccc(C(C)C)cc3)s2)n1C`: the inhibition was 1.23%.

Consider `CN(C)C(=O)c1ccc(-n2nc(C(F)(F)F)c3c2CCCC3)cc1`, for which the inhibition was found to be 22.9%.

As for `CN(Cc1ccccc1)C(=S)NC(=O)c1ccc(-c2ccccc2)cc1`, the inhibition came out at 26.7%.

`CN1CCCC(OC(=O)c2ccc(C#N)cc2)C1` (centres undefined): the inhibition was -5.71%.

For `COc1ccc(C2(C)NC(=O)N(CC(=O)Nc3cccnc3Cl)C2=O)cc1` (centres undefined), the inhibition stood at 8.35%.

On to `COc1ccc(NC(=O)c2cc(C)nc3ccccc23)c(OC)c1`, for which the inhibition amounted to 22%.

Take `CN1CCc2c(sc(NC(=O)C3COc4ccccc4O3)c2C(N)=O)C1` (centres undefined): the inhibition was 2.65%.

In the case of `COc1ccc(C(=O)Nc2cccc(C(=O)O)c2)cc1S(=O)(=O)N1CCCC1`, the inhibition was -18.2%.

On to `Cc1ccc(S(=O)(=O)NC(=NCC(=O)O)c2ccc(F)cc2)cc1`, for which the inhibition stood at 2.94%.

On to `O=C1c2cccnc2C(=O)N1c1ccccc1-c1ccccc1`, for which the inhibition was 24%.

Consider `CCN(CC)c1ccc(CN2CCCCCC2)cc1`, for which the inhibition is 27.1%.

With `Cc1cc(SCC(=O)N2CCC(c3noc4ccc(F)cc34)CC2)nc2ccccc12`, the inhibition is -0.11%.

In the case of `CCn1nc(C)cc1C(=O)N(C)C1CCCN(Cc2ccccc2F)C1` (centres undefined), the inhibition was 2.33%.

As for `COCCNC(=O)c1ccc(NC(=O)C2(c3ccccc3)CCCC2)cc1`, the inhibition is 40.9%.

Regarding `COc1ccc(C(=O)CSc2nnc(-c3cnccn3)n2Cc2ccco2)cc1`, the inhibition turned out to be 4.29%.

Turning to `CC1Cc2ccccc2N1C(=O)COc1cccc(-n2cnnn2)c1` (centres undefined), the inhibition was -2.19%.

Turning to `COC(=O)C(C)Sc1nc2c(c(-c3ccc(OC)cc3)c1C#N)-c1ccccc1C2=O` (centres undefined), the inhibition came to 2.5%.

On to `COc1ccccc1CN1CC(C(=O)NCc2ncccc2C)CCC1=O` (centres undefined), for which the inhibition is 0.53%.

In the case of `NC(=S)N/N=C/c1ccc(/C=N/NC(N)=S)cc1`, the inhibition was -2.77%.

With `CCN(CC)C1CCN(C(=O)c2ccc(OC3CCN(CCc4ccccc4)CC3)cc2)C1` (centres undefined), the inhibition is -13.9%.

`COc1ccc(C(=O)O)cc1NC(=S)NC(=O)C(c1ccccc1)c1ccccc1`: the inhibition amounted to 10.1%.

Turning to `Cc1ccc(C2CC(c3ccc(C)cc3)n3nc(N)nc3N2)cc1` (centres undefined), the inhibition is 3.75%.

`CC(=O)NC(Cc1ccc(F)cc1)C(=O)N1CCN(C(=O)NCc2ccccc2)CC1` (centres undefined): the inhibition stood at 1.65%.

`CC1Cc2ccccc2N1c1ncnc2c1nnn2Cc1ccccc1` (centres undefined): the inhibition was determined as 4.96%.

As to `Cc1cc(NC(=O)c2cc3n(n2)C(C(F)(F)F)CC(c2ccc(Cl)c(Cl)c2)N3)no1` (centres undefined), the inhibition was -10%.

Consider `CC1CN(C2CCCCC2)c2nc3c(c(=O)[nH]c(=O)n3C)n2C1` (centres undefined), for which the inhibition turned out to be 13.3%.

`c1ccc(Cn2nnc3c(NCCN4CCOCC4)ncnc32)cc1`: the inhibition was -3.24%.

With `Fc1ccc(F)c(CN2CCN(c3ncccn3)CC2)c1`, the inhibition came to 1.38%.

As for `Cc1c(C(=O)N2CCN(CCc3ccccc3)CC2)oc2ccccc12`, the inhibition was found to be 3.01%.

Consider `CCOC(=O)C1CCN(Cc2ccc(OC)cc2OC)CC1`, for which the inhibition was -13.1%.

As for `CCN(CC)CCCN1C(=O)C(O)=C(C(=O)c2cc3cccc(OC)c3o2)C1c1ccncc1` (centres undefined), the inhibition came to 0.25%.

In the case of `Cc1ccc(C(=O)/C=C/c2cc(Br)cc(Br)c2O)o1`, the inhibition worked out at 39.6%.

Turning to `CC1CCN(S(=O)(=O)c2ccc(Cl)cc2Br)CC1`, the inhibition came to 2.78%.

For `Cc1c(NC(=O)c2noc3c2CCc2ccccc2-3)c(=O)n(-c2ccccc2)n1C`, the inhibition turned out to be 43%.

Regarding `CSCC(=O)Nc1ccc(F)c(Cl)c1`, the inhibition is -0.69%.

As for `Cc1ccc(CN2C(=O)N/C(=C\c3ccc(-c4ccc(C(=O)O)cc4C)o3)C2=O)cc1`, the inhibition worked out at 37.5%.

As to `S=c1[nH]nc(COc2ccccc2)n1/N=C/c1ccc(Br)cc1`, the inhibition is -4.69%.

`COc1ccc(/C=N/NC(=O)CNc2n[nH]c(=O)[nH]c2=O)cc1OC`: the inhibition amounted to 0.25%.

Take `CCCCn1c(N)c(N(CC(C)C)C(=O)c2cccc(S(=O)(=O)N3CCCCCC3)c2)c(=O)[nH]c1=O`: the inhibition was 2.17%.

Consider `COc1cc(C)ccc1OCc1cc(C(=O)NCc2ccncc2)no1`, for which the inhibition is -1.26%.

Turning to `CCCOc1ccc(C(=O)CCN2CCCCC2)cc1`, the inhibition was determined as 23.5%.

With `COc1ccc(Cc2nn3c(-c4ccccc4OC)nnc3s2)cc1`, the inhibition was -1.03%.

Take `CSc1ccc(NC(=O)NCCCN2CCC(Cc3ccccc3)CC2)cc1`: the inhibition worked out at 7.66%.

On to `CC(=O)c1c(N2CCN(Cc3ccccc3)CC2)[nH]c(-c2ccccc2)nc1=S`, for which the inhibition was -2.96%.

With `CCOC(=O)Cn1nc(-c2ccc(C)cc2)ccc1=O`, the inhibition is -1.62%.

For `CN1CCN(C(=O)CN(C2CCCCC2)S(=O)(=O)c2ccc(Br)cc2)CC1`, the inhibition was -3.48%.

On to `COc1cccc(NC(=O)Cn2cc3c(n2)CCCCC3)c1`, for which the inhibition was -6.53%.

Take `CCCCSCCCNC(=O)CS(=O)Cc1nc(-c2cccc(C)c2)oc1C` (centres undefined): the inhibition turned out to be 71.6%.

On to `COc1ccc(C2(CNC(=O)c3cc([N+](=O)[O-])cc([N+](=O)[O-])c3)CCCC2)cc1OC`, for which the inhibition came to 54.8%.

With `O=C(COc1ccc2ccc(=O)oc2c1)NCc1ccccn1`, the inhibition was found to be 1.95%.

Take `COc1ccc(C(=O)N2CCN(C)C(C)C2)cc1OC1CCN(C(C)=O)CC1` (centres undefined): the inhibition was 1.61%.

Regarding `COC(=O)C1=C(C)N(CC2CCCO2)C(=O)C1` (centres undefined), the inhibition is -1.5%.

For `O=C(CN1CCC(NC(=O)c2cccc(F)c2)CC1)NCc1ccccc1F`, the inhibition is -1.22%.

Turning to `CCOC(=O)N1CCN(C(=O)COCc2cc(-c3ccc4c(c3)OCO4)on2)CC1`, the inhibition amounted to 3.11%.

For the compound `Cc1ccc(Cn2c(CN3CCN(C(=O)c4ccco4)CC3)nc3c2c(=O)n(C)c(=O)n3C)cc1`, the inhibition was -9.23%.

As to `O=C(CCn1c(=S)[nH]c2ccccc2c1=O)NCC1CCCO1` (centres undefined), the inhibition was -1.75%.

In the case of `Cc1cc(=O)oc2c(CN3CCCC3)c(O)c(Cl)cc12`, the inhibition is -7.8%.

`CCOC(=O)Nc1ccc(S(=O)(=O)N2CCOCC2)cc1`: the inhibition was -6.68%.

With `CSc1cccc(NC(=S)NC(=O)CCc2ccccc2)c1`, the inhibition came to 6%.

On to `Cc1cc(C(=O)Nc2c(F)cc(F)cc2Br)no1`, for which the inhibition is 1.51%.

As to `O=[N+]([O-])c1cc(Cl)cc(/C=N/NC(=S)Nc2cc(S(=O)(=O)N3CCOCC3)ccc2Cl)c1O`, the inhibition is 9.17%.

Consider `CCc1noc(C)c1C(=O)NC1CC(C)(C)Cc2c1cnn2-c1ccccc1` (centres undefined), for which the inhibition came to 11.3%.

`CSc1ccccc1OCc1cc(C(=O)NC(C)Cc2cccc(C)n2)no1` (centres undefined): the inhibition came out at 6.21%.

`CN(CCc1ccccn1)C(=O)c1cc(COc2ccc(F)cc2F)on1`: the inhibition was found to be 9.49%.

Regarding `O=C(O)C1C2C=CC(C2)C1C(=O)Nc1cccc(Cl)c1` (centres undefined), the inhibition is 4.06%.

For the compound `CCCc1cc(=O)oc2cc(O[C@@H]3O[C@H](CO)[C@@H](O)[C@H](O)[C@H]3O)ccc12`, the inhibition is -2.18%.

For `CCOC(=O)Cn1c(C)cc(=O)c2cccc(C)c21`, the inhibition was found to be 16.2%.

On to `C=Cc1cccc(NC(=O)c2ccc(NC(=O)c3ccco3)cc2)c1`, for which the inhibition was 12.4%.

As to `CC1CCN(C(=O)CSc2nc(C(C)C)nc3c2c(=O)n(C)c(=O)n3C)CC1`, the inhibition worked out at 3.31%.

As for `CC1(C)Cc2[nH]c3ccccc3c2C(C)(C)N1`, the inhibition was -4.68%.

For `COc1ccc(N2CC(C(=O)Nc3nnc(SCC(=O)NCC4CCCO4)s3)CC2=O)cc1` (centres undefined), the inhibition amounted to 9.67%.

As for `COC(=O)[C@H](CCSC)NC(=O)NCCc1ccccc1F`, the inhibition was determined as 0.94%.

On to `Cn1c(Cn2c(=O)sc3ccccc32)nnc1SCc1cccnc1`, for which the inhibition is -0.68%.

Regarding `O=C(/C=C/c1cccc([N+](=O)[O-])c1)Nc1cccc(NC(=O)c2ccco2)c1`, the inhibition turned out to be 1.46%.

With `O=C(NNC1=C(C(=O)C(F)(F)F)CCC1)c1cccc(O)c1`, the inhibition is 3.25%.
